Measurements from FireProtDB (doi:10.1016/j.ijbiomac.2019.10.153).

Conditions: Homo sapiens, pH 7.5, 25 °C, Urea, transition: 2, reversible: yes

Which denaturant m value (CD) does the source give for “Triosephosphate isomerase wild type (no sequence given)” here?
Its denaturant m value is 0.55 kcal/mol/M.

What about the “denaturant midpoint (higher = more stable)” value (CD) of the same substance?
Its value is 4.81 M.

And the unfolding free energy (CD)?
Its unfolding free energy is 2.65 kcal/mol.

What about the denaturant m value (absorbance) of the same substance?
Its denaturant m value is 0.56 kcal/mol/M.

What about the “denaturant midpoint (higher = more stable)” value (absorbance) of the same substance?
Its value is 4.78 M.

And the unfolding free energy (absorbance)?
The unfolding free energy was 2.68 kcal/mol.
